Several values for one entry are separate records, joined by “and”; a condition that tells them apart may be missing. Identical values can stand only once. This list was built around the results that the source calls inconclusive (neither active nor inactive); the mix of calls is not that of the screen. For some of these results: Where the call is inconclusive, the potency comes from a doubtful curve fit. Activity calls are given as the source filed them. Unless noted, the call rests on the fitted dose curve; in most records, active means well fitted curve in the direction sought with a large enough effect in the repeat runs; inconclusive means weak or mixed curves; inactive means no such curve, though single readings can be large; an effect the other way counts as inactive or inconclusive.
Assays:
[1] = qHTS assay for small molecule agonists of the p53 signaling pathway (AID 651631; calls by dose curve; further: nearly all actives have a fitted effect of over 15% in size; further: potency means the concentration at half of the fitted maximal effect); settings: HCT-116 p53RE-bla reporter, beta-lactamase FRET ratio, 16 h; activation: at 73.3 µM (top of the series) unless noted
How it was run: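 HCT-116 cells carrying a beta-lactamase reporter under p53 response elements were dosed with compound for 16 h at 37 °C. LiveBLAzer B/G FRET substrate was then added for 2 h at room temperature, and fluorescence intensity was read to detect pathway agonism.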

[2] = qHTS assay for small molecule disruptors of the mitochondrial membrane potential (AID 720635); settings: HepG2 mitochondrial membrane potential, Mito-MPS dye ratio; ratio activity, negative = MMP loss: at 83.2 µM (top of the series) unless noted; further: potency means the concentration at half of the fitted maximal effect; on ratio activity, negative = MMP loss: on the % scale 0 is the no-effect control and ±100 the full control effect
How it was run: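 Mitochondrial membrane potential tracked with Mito-MPS dye, red aggregates (ex 540/em 590 nm) against green monomers (ex 490/em 535 nm). Compound treatment 1 hr at 37C, dye 30 min in HepG2.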

[3] = target: Glucocorticoid receptor (Homo sapiens) (UniProt P04150); assay: qHTS assay to identify small molecule antagonists of the glucocorticoid receptor (GR) signaling pathway (AID 720692; active means well fitted inhibition curve with a large enough effect in the signal ratio in the repeat runs, not every such curve was filed as active; inconclusive means weak or mixed curves, or effect the other way; inactive means no such curve, though single readings can be large or run the other way; the % refers to the signal ratio; further: potency means the concentration at half of the fitted maximal effect; on activity change, negative = inhibition: on the % scale 0 is the no-effect control and ±100 the full control effect); settings: GR-bla HeLa, beta-lactamase FRET ratio, dexamethasone-stimulated, 18 h; activity change, negative = inhibition: at 58.5 µM (top of the series) unless noted
How it was run: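 Inhibition of dexamethasone-driven (5 nM final) beta-lactamase expression was measured in GRE-reporter HeLa cells over 18 h at 37C. Fluorescence was read after 2 h with the B/G FRET substrate at room temperature.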

[4] = qHTS assay to identify small molecule antagonists of the thyroid receptor (TR) signaling pathway - cell viability counter screen (AID 743064); settings: GH3.TRE-Luc viability, CellTiter-Fluor, 24 h; activity change, negative = cytotoxic: at 70.3 µM (top of the series) unless noted; further: potency means the concentration at half of the fitted maximal effect; nearly all actives have a fitted effect of over 50% in size
How it was run: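 GH3.TRE-Luc rat pituitary cells dosed after 4 hr plating, co-stimulated with T3 at 1 nM final, incubated 23.5 h at 37 C. Viability measured in the same wells by CellTiter-Fluor fluorescence after 30 min further at 37 C.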

[5] = qHTS assay to identify small molecule antagonists of the estrogen receptor alpha (ER-alpha) signaling pathway using the BG1 cell line - cell viability counter screen (AID 743081); settings: BG1Luc4E2 viability, CellTiter-Fluor, 22 h; activity change, negative = cytotoxicity: at 70.3 µM (top of the series);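 further: compound given together with 17beta-estradiol as the ER stimulus; nearly all actives have a fitted effect of over 45% in size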; further: potency means the concentration at half of the fitted maximal effect; on activity change, negative = cytotoxicity: on the % scale 0 is the no-effect control and ±100 the full control effect
[6] = qHTS assay for small molecule disruptors of the mitochondrial membrane potential - cell viability (AID 720634; calls by dose curve;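 further: human HepG2 liver cancer cells; on the % scale 0 is the no-effect control and ±100 the full control effect; nearly all actives have a fitted effect of over 20% in size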)
How it was run: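 Cytotoxicity was quantified from ATP content by CellTiter-Glo luminescence in the same wells as the MMP dye read-out. HepG2 (2,000 cells/well) were plated overnight and exposed to compounds for 1 hr at 37 C.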

[7] = qHTS assay for identifying genotoxic compounds that show differential cytotoxicity against isogenic chicken DT40 cell lines with known DNA damage response pathways - Rev3 mutant cell line (AID 743014); settings: chicken DT40 Rev3-/- viability, CellTiter-Glo, 40 h; activity, negative = cytotoxicity: at 68.4 µM (top of the series); further: potency means the concentration at half of the fitted maximal effect; nearly all actives have a fitted effect of over 55% in size
[8] = qHTS assay for identifying genotoxic compounds that show differential cytotoxicity against isogenic chicken DT40 cell lines with known DNA damage response pathways - Rad54/Ku70 mutant cell line (AID 743015); settings: DT40 Rad54/Ku70 mutant viability, CellTiter-Glo, 40 h; activity change, negative = cytotoxicity: at 66.8 µM (top of the series); further: potency means the concentration at half of the fitted maximal effect; nearly all actives have a fitted effect of over 60% in size
[9] = qHTS assay to identify small molecule antagonists of the estrogen receptor alpha (ER-alpha) signaling pathway - cell viability counter screen (AID 743074; calls by dose curve;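 further: HEK293 cells carrying ER-alpha-UAS-bla reporter stimulated with 17beta-estradiol; nearly all actives have a fitted effect of over 45% in size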; further: potency means the concentration at half of the fitted maximal effect)
[10] = qHTS assay for identifying genotoxic compounds that show differential cytotoxicity against isogenic chicken DT40 cell lines with known DNA damage response pathways - wild type cell line (AID 743012); settings: DT40 wild type chicken cells viability, CellTiter-Glo, 40 h; activity change, negative = cytotoxicity: at 68.4 µM (top of the series) unless noted; further: nearly all actives have a fitted effect of over 60% in size; further: potency means the concentration at half of the fitted maximal effect
How it was run: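 Viability by ATP luminescence (CellTiter-Glo, 30 min RT) after 40 h compound treatment at 37 C/5% CO2, using 300 parental DNA repair-proficient DT40 cells per well.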

[11] = test system: thyroid hormone receptor (rat, GH3 cells); assay: qHTS assay to identify small molecule agonists of the thyroid receptor (TR) signaling pathway (AID 743066; calls by dose curve; further: on the % scale 0 is the no-effect control and ±100 the full control effect); settings: GH3.TRE-Luc cells, TR agonist luciferase, 24 h; activation: at 83.9 µM (top of the series) unless noted
[12] = qHTS assay for small molecule agonists of the p53 signaling pathway - cell viability (AID 651633; calls by dose curve; further: on the % scale 0 is the no-effect control and ±100 the full control effect; nearly all actives have a fitted effect of over 30% in size)
How it was run: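 Viability counter-read: CellTiter-Glo luminescence (30 min, room temperature) in the same p53RE-bla plates. These plates had been exposed to compounds for 16 h at 37 C.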

[13] = qHTS assay to identify small molecule antagonists of the androgen receptor (AR) signaling pathway - cell viability counter screen (AID 743033; further: on the % scale 0 is the no-effect control and ±100 the full control effect; nearly all actives have a fitted effect of over 45% in size)
[14] = target: Androgen receptor (Homo sapiens) (UniProt P10275); assay: qHTS assay to identify small molecule agonists of the androgen receptor (AR) signaling pathway (AID 743036; active means well fitted activation curve with a large enough effect in the signal ratio in the repeat runs, with a control signal flat, not every such curve was filed as active; inconclusive means weak or mixed curves, or effect the other way; inactive means no such curve, though single readings can be large or run the other way; the % refers to the signal ratio; further: potency means the concentration at half of the fitted maximal effect); settings: HEK293 AR-UAS-bla GripTite, beta-lactamase FRET ratio, 16 h; activation: at 62.4 µM (top of the series) unless noted
How it was run: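 AR-UAS-bla HEK293 cells, plated 4 h before dosing, were treated with compound for 16 h at 37C. beta-Lactamase reporter read after 2 h with LiveBLAzer B/G FRET substrate at room temperature.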

[15] = qHTS assay to identify small molecule antagonists of the thyroid receptor (TR) signaling pathway (AID 743065); further: potency means the concentration at half of the fitted maximal effect; nearly all actives have a fitted effect of over 55% in size
How it was run: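 Antagonism measured as loss of luciferase signal in GH3 cells stably carrying a TRE-luciferase reporter, co-treated with compound and T3 (1 nM final) for 23.5 h at 37 C. Viability was read in the same well by CellTiter-Fluor.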
Tags describe the fitted curve by direction and shape or compound fluorescence and quenching.

Chain of UniProt P04150 (P04150 whole entry, looked up): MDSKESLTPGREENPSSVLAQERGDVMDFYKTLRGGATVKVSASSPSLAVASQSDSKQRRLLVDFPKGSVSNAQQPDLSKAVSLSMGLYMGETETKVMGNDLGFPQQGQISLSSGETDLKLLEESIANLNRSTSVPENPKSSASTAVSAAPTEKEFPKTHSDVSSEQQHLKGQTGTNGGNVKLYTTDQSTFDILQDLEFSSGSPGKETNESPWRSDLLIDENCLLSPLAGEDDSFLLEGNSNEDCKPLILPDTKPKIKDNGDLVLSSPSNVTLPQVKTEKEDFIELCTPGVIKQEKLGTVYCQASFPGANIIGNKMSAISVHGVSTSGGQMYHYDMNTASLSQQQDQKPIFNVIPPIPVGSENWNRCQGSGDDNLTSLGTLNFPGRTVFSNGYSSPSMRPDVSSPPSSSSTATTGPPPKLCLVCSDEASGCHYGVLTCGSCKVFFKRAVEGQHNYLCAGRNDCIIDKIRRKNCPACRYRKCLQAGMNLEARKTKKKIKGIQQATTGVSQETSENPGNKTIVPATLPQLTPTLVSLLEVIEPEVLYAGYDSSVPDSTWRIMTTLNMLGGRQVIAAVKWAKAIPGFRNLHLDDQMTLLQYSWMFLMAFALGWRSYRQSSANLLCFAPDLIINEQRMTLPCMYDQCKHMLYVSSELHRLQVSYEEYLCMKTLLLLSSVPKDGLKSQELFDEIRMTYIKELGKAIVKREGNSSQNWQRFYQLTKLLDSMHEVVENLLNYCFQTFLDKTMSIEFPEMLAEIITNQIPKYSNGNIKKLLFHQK
Chain of UniProt P10275 (P10275 whole entry, looked up): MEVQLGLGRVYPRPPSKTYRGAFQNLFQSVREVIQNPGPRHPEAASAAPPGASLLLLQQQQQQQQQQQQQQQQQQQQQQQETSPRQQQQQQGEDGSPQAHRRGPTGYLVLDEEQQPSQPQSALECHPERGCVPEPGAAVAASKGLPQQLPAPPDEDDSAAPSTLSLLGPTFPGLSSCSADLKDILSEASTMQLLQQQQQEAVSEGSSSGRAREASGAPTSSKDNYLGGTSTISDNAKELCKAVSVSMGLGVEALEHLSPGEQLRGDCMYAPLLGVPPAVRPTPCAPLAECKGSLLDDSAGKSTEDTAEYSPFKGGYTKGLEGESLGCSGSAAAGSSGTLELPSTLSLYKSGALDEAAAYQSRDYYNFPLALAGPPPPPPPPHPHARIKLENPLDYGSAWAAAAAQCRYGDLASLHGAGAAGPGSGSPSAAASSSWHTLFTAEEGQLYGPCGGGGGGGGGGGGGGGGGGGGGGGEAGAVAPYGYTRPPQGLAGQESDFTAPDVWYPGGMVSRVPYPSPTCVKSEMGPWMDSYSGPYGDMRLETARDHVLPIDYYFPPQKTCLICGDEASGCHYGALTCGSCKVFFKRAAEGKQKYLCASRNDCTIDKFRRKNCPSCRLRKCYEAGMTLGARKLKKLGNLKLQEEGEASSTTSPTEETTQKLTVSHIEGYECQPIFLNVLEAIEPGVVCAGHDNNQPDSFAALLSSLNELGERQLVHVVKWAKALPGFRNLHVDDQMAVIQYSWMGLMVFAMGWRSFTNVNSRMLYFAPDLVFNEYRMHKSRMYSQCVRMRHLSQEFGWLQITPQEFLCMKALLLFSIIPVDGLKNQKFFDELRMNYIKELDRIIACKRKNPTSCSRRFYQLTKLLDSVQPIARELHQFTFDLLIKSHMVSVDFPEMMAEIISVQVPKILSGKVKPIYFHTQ

For `Cc1cc(C)cc(C(=O)OC2C[C@H]3CC[C@@H](C2)N3C)c1` (stereo partly drawn), the Potency [1] was inconclusive: 18.8 µM [fluorescent, single point], the ratio activity, negative = MMP loss [2] was inconclusive: 8.12% and the activity change, negative = inhibition [3] was inconclusive: -4.82%. The Potency [4] was inconclusive: 26.6 µM [cytotoxic, partial curve, poor fit] and the Potency [5] was “inactive”.

With `CCNC(C)Cc1cccc(C(F)(F)F)c1` (stereo not drawn) the Potency [6] was “inactive”, the Potency [7] was inconclusive: 13.3 µM [cytotoxic, full curve] and the Potency [8] was inconclusive: 33.5 µM [cytotoxic, single point]. The Potency [9] was “inactive”.

With `CN=C1CN(O)C(c2ccccc2)=c2cc(Cl)ccc2=N1` the Potency [1] was inconclusive: 33.5 µM [activator, single point], the Potency [2] was inconclusive: 11.9 µM [activator] and inconclusive: 13.3 µM [activator, single point] and the activity change, negative = cytotoxicity [10] was inconclusive: -44.5% [cytotoxic]. The Potency [8] was inconclusive: 29.8 µM [cytotoxic, single point], the Potency [11] was “inactive” and the Potency [5] was “inactive”.

With `C[C@]12CCC(=O)C=C1C=C[C@@H]1[C@@H]2CC[C@@]2(C)[C@H]1CC[C@@]2(O)CCC(=O)O` the Potency [12] was “inactive”, the Potency [2] was “inactive” and the Potency [3] was active: 9.1 µM. For the same molecule, the Potency [10] was inconclusive: 12.7 µM [cytotoxic, single point], the Potency [7] was inconclusive: 16 µM [cytotoxic, single point] and the Potency [8] was inconclusive: 14.3 µM [cytotoxic, single point]. For the same molecule, the Potency [13] was “inactive”, the Potency [14] was active: 3.62 µM and the Potency [9] was inconclusive: 0.091 µM [rising, full curve, poor fit].

With `O=C1CN=C(c2ccccc2)c2cc(Cl)ccc2N1` the Potency [1] was “inactive”, the Potency [3] was active: 23.9 µM and the Potency [15] was inconclusive: 21.1 µM [inhibitor, partial curve]. For the same molecule, the Potency [5] was inconclusive: 0.75 µM [rising, full curve, poor fit].

From PubChem BioAssay (Tox21)
